Data taken from the supplement of paper PMC11417369.
This is one part of the list.

test system: PfAP2-HC AP2 domain (GST-tagged); test: gcPBM binding intensity (ln(normalized median fluorescence intensity)); higher = stronger DNA binding
Summary of the method: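 The binding buffer was 1× PBS containing 1% milk, 0.2 mg/ml BSA, 0.5% salmon testes DNA and 0.03% Triton X-100. In it, GST-tagged P. falciparum DNA-binding domains expressed in E. coli were applied for 1 h to an Agilent 4 × 180k array of primer-extended double-stranded 36-bp intergenic genomic probes plus negative controls. Binding intensity, read with Alexa488 anti-GST antibody and a 488 nm scan, is the highest Masliner-normalised natural-log median intensity across replicate spots of either probe orientation.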

Sequence	gcPBM binding intensity (ln)
TAAATATATATATATGTACACACTCCAATACATATA [CACACA_site8858]	9.88
TATATATATATTATATGTACATATTCCTATATATAC [XGTACX_site7071]	9.77
TCCTTATAAATATATATATAATATATATATATATAT [CACACA_negctrl_site293]	9.47
TATATATATATTTATACACACATTAGTGTAGACATG [CACACA_site8964]	9.71
TTGTTCTAATATATTGCACACGTAAAAATATAGGTA [CACACA_site8195]	9.68
AAGTATGCATTATATACACACATACATTTATATATT [CACACA_site4242]	9.91
TTGGTTATACAACACATGCACACGTAAATAAATATT [CACACA_site3841]	9.83
ATTATGTTAAAAAGGCGTACATGTTATAAGGTCCTA [XGTACX_site344]	9.56
TATATATAAAGAGAAACATGCAAAATGTGAATATTC [TGCATGCA_site377]	9.73
TTTTGTTCTAATATGGGAACATAAATATTAAATATA [CACACA_negctrl_site1787]	9.24
ATATAAATATTAATTACACACAAAAAAAAAAAAAAA [CACACA_site6671]	9.69
AATGGAAAAGGTAGTTGTACAACATGTTAAAATGGT [XGTACX_site1312]	10.1
TTGAAGAATAAATATGCACACATGCATATATTTTTA [CACACA_site5840]	9.64
ATATAAATAAACAACTTTGTTGGCCTTCCAAAATAT [CACACA_negctrl_site1181]	9.62
CTCAAAAAATTTCATAGTACTTTAAAATACTATAAT [XGTACX_site1939]	9.41
AATAAAAAAAAACGCACACACAAATATATTCCATTC [CACACA_site1224]	10.4
ATATATATTTAAAACGCATGCCTTGTTATATATATA [TGCATGCA_site624]	9.74
CATATATATTTTATATGTACATATATATTTTATATA [XGTACX_site8665]	9.7
ATTACAAAAATATATAAACACACAAATATAATATAT [CACACA_site8962]	9.97
ATATATATTATAATAACACACATATATTATATTATA [CACACA_site406]	9.62
TATATATATAAATGAATGCACTTTAGAAAAAAGTAC	9.58
TAATAATATAAATATGCACACAAATTATTACCCAAA [CACACA_site8805]	9.79

Sequence	gcPBM binding intensity (ln)
AATAAAATACAAAAATGTACAAATATAATATACATA [XGTACX_site279]	9.78
ATAAAATAAAACAACACACACGAATGTATAAATATA [CACACA_site4643]	10.7
TAGATATATAGAATTACACACTTTTCTATAATATGA [CACACA_site6475]	9.56
TAATATAAAATGATAAATGAATGTGATCATTTTATA [CACACA_negctrl_site1034]	9.69
ACATACTCAAATAGCACACACATAAATAAAAATGTA [CACACA_site3864]	10.4
AGATATTTTTCTTAAGTACACACTAAATAGAAACTA [CACACA_site44]	9.49
TTTTTTTTTTTCAGTTGTACATTGGGAAAATATATA [XGTACX_site4416]	9.44
AGTCTGAATAAAATTACACACATATACCTATAAATA [CACACA_site6929]	9.79
TTTAAAAAAATGAAATAAAAAAAAAATAAAATAAAA [XGTACX_negctrl_site316]	9.52
ATATATATAATTTGTACACACAAATATGCATATATA [CACACA_site3432]	9.78
AAATAATTTATATATTGTACAAATATTAAATGCGAA [XGTACX_site3390]	9.67
GGGTTGATATATATTTGTACATATTATTATTTATTA [XGTACX_site7116]	9.9
TTTATTTTAACTTGTTCACACATTTGAATAAATAAA [CACACA_site5064]	9.52
ATATATATATATTATGTGCGCATATACCATTTTAAT [GTGCAC_site9575]	9.87
GAAAAAAAAAAAAAAAGAAAATTCATATTTTTAATA [XGTACX_negctrl_site513]	9.2
ACATTTATATATAATTGTACCCTACATTCTCTTTTT [XGTACX_site189]	9.86
AAAAATATATAAACACGTACACACACATATATGTAT [XGTACX_site7436]	10.4
TACCAAAAAAAAAAAAAAAATTAAATAAATATGAAA [TGCATGCA_negctrl_site383]	9.27
TATGTTAAAAAAAAAAAAAAGAAAAAAATAAAAGGA [CACACA_negctrl_site119]	9.52
AAACAAATAGACACTTGTACGTAAGTAAATAATTAA [XGTACX_site6157]	9.87
TATTTTACTTTAAAAATGGAAAAAAAAAAGAATATT [CACACA_negctrl_site1360]	9.17
TTTTTTTTTTTTACATGTACATATGAATTATAATAT [XGTACX_site5016]	9.75

Sequence	gcPBM binding intensity (ln)
TTAATAAAACTAACACGTACACATATATAATATTAT [XGTACX_site3260]	9.72
ATTGTCATCATTATATGTACGTAAAAGAATATAGAT [XGTACX_site3117]	9.7
GAAAGAAGCATAAATGTACACACATATTTATATATT [CACACA_site8368]	9.91
TTTCTATATAGATTTGCACACATAAAAATGCTTATA [CACACA_site2390]	9.79
CTTTATACATGACATAGTACCCATTTTAGATTTGAA [XGTACX_site5240]	9.46
AAGGGAAAAATATGGTTGCACTAAAAATATGTAATT [GTGCAC_site9605]	9.5
ACATATTTTTACTTTTGTACATATTTTTTAATTTTC [XGTACX_site640]	9.91
TTTATATATTTTTATCTTGATAATAATGTTTTAGAA [TGCATGCA_negctrl_site300]	9.38
GTATATTACATAAAATGTACATAAAAAGCGGAAAAG [XGTACX_site6905]	9.97
TATATTAATTATAAGACACACATATAGTAATAGAAA [CACACA_site2056]	9.87
AATAAGAAAACAAATGCACACCATTTATATAGATTA [CACACA_site8261]	9.77
ATGGGTTAGGCGTGTACACAATTGTATGGTTTAATA [CACACA_site4812]	10
CGTGGAAAAAAAAACACACACAAAAAAAAAAAAAAA [CACACA_site3997]	9.57
TTCAAATATATGTTTTCACACACAAAAGAAATGAAA [CACACA_site8671]	9.87
TTTTCTCTAAAAAGGTGTACAACTAATAATGCACTG [XGTACX_site6074]	9.56
ATATATATATAATATTGTACGAAAAAAAATAAAAAA [XGTACX_site974]	9.77
AAATATAATTAATGATGTACACTTATAGATATTGAT [XGTACX_site8435]	9.68
TATTCTCGTTCTCATACACACAAAATATACATACAC [CACACA_site7278]	10
GGGTTAATATTTACTACACACACTTAAAATATGTAT [CACACA_site47]	9.92
ATGTATTTTTAAAAATATAAATTATGTAACTTGTGA [XGTACX_negctrl_site620]	9.68
TACTGATATAATATAACCGTTTATGTGTATTTTTTA [XGTACX_negctrl_site81]	9.75
TATAATAAAATTTTTACACACTTTAAAAAAAAAAAA [CACACA_site524]	9.51

Sequence	gcPBM binding intensity (ln)
TAATAAATAAAAATAGAACACACATATGTTTTTTTT [CACACA_site9185]	9.72
CAGTAGTATATACTATGTACATATTTATATTATATT [XGTACX_site4964]	9.77
AATATAAATAAACACACACACATATATATATATATT [CACACA_site2906]	11
AAAAAAAAAAAAAAATGTACATATATATAAATAAAA [XGTACX_site5574]	9.66
ATATTTATATATTGCACACAAAAAAAAAAAAAAATC [CACACA_site1629]	9.88
TATATATATATGTAATGTACATAAATTTTATACCTT [XGTACX_site6991]	9.63
AACAACCAAACGCACACACACAAAAAAAAAAATATA [CACACA_site6326]	10.8
TTATATGCATAAAAAGGTACACATATATAAATAAAT [XGTACX_site6894]	9.78
ACATTTAAAATTTATGCATGTGGTGTTTTGTATATA [TGCATGCA_site534]	10.2
TTTGTGTAGGTGTGTAGTACATATAACTTATAACAT [XGTACX_site7885]	9.97
TAATAAAATGTACACGCATGCAATAGAATATAAAGT [TGCATGCA_site905]	10.1
TATATTCATAATATTACACACGTTCATTTATTTTAA [CACACA_site2031]	9.95
GAGTGAAATATGCAAACACACACGAGAAAAATGTAT [CACACA_site3196]	10.2
TATGGTTTTAAAAAATGTACGCAAGTGCGTTAATTT [XGTACX_site3945]	9.56
TTATATATTTATATATGTACACATTTTACCATTTTT [XGTACX_site2142]	9.79
AAATTTATAAAGAACACACACATATAAATATAAATA [CACACA_site6174]	10.2
GTCCCTATAAGGGGAACACACATAAATGAATATATA [CACACA_site1024]	9.58
TTTTTTTGTTAAAAGGTGCTAATATATATAAGTGCT	9.35
TTATAATTGTAAGGTAGTACATATAAATCAAATAAT [XGTACX_site7190]	9.54
TATACAGATGGACACACACACATATATATATATATA [CACACA_site5272]	11
ATACAAACAATTATTTGTACATAAAATTTTTTTTTT [XGTACX_site90]	9.52
ATGAATCTTTTAAAAAGTACATGTGAAAAAAATAAA [XGTACX_site49]	9.63
